In the supplement of paper PMC8728848:
This is one part of the list.

Key:
Test in all cases: glycan array binding signal (z-score within array); higher = stronger binding
Settings in all cases: glycan notation: IUPAC condensed, linker removed
[1] = target: Fuc(a1-2)Gal
Method in brief: (§1)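 Columns mapping to the same glycan were averaged after glycan names were converted to IUPAC-condensed notation. The data come from 3228 arrays in the Consortium for Functional Glycomics database, limited to those with an available protein sequence. Binding is reported as a within-array Z-score averaged across arrays of one protein sequence and across linkers.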

[2] = target: Fuc(a1-2)Gal(b1-3)GalNAc
Method in brief: as §1

[3] = target: Fuc(a1-2)Gal(b1-3)GalNAc(a1-3)[Fuc(a1-2)]Gal(b1-4)Glc
Method in brief: as §1

[4] = target: Fuc(a1-2)Gal(b1-3)GalNAc(a1-3)[Fuc(a1-2)]Gal(b1-4)GlcNAc
Method in brief: as §1

[5] = target: Fuc(a1-2)Gal(b1-3)GalNAc(b1-3)Gal
Method in brief: as §1

[6] = target: Fuc(a1-2)Gal(b1-3)GalNAc(b1-3)Gal(a1-4)Gal(b1-4)Glc
Method in brief: as §1

[7] = target: Fuc(a1-2)Gal(b1-3)GalNAc(b1-4)[Neu5Ac(a2-3)]Gal(b1-4)Glc
Method in brief: as §1

[8] = target: Fuc(a1-2)Gal(b1-3)GlcNAc
Method in brief: as §1

[9] = target: Fuc(a1-2)Gal(b1-3)GlcNAc(b1-2)Man(a1-3)[Fuc(a1-2)Gal(b1-3)GlcNAc(b1-2)Man(a1-6)]Man(b1-4)GlcNAc(b1-4)GlcNAc
Method in brief: as §1

[10] = target: Fuc(a1-2)Gal(b1-3)GlcNAc(b1-2)Man(a1-3)[Fuc(a1-2)Gal(b1-3)GlcNAc(b1-2)Man(a1-6)]Man(b1-4)GlcNAc(b1-4)[Fuc(a1-6)]GlcNAc
Method in brief: as §1

[11] = target: Fuc(a1-2)Gal(b1-3)GlcNAc(b1-3)Gal(b1-4)Glc
Method in brief: as §1

[12] = target: Fuc(a1-2)Gal(b1-3)GlcNAc(b1-3)GalNAc
Method in brief: as §1

[13] = target: Fuc(a1-2)Gal(b1-3)GlcNAc(b1-3)[Fuc(a1-2)Gal(b1-3)GlcNAc(b1-6)]GalNAc
Method in brief: as §1

[14] = target: Fuc(a1-2)Gal(b1-3)GlcNAc(b1-3)[Gal(b1-4)GlcNAc(b1-6)]Gal(b1-4)Glc
Method in brief: as §1

[15] = target: Fuc(a1-2)Gal(b1-3)GlcNAc(b1-3)[Neu5Ac(a2-6)Gal(b1-4)GlcNAc(b1-6)]Gal(b1-4)Glc
Method in brief: as §1

[16] = target: Fuc(a1-2)Gal(b1-3)GlcNAc6S
Method in brief: as §1

[17] = target: Fuc(a1-2)Gal(b1-3)[Fuc(a1-4)]GlcNAc
Method in brief: as §1

[18] = target: Fuc(a1-2)Gal(b1-3)[Fuc(a1-4)]GlcNAc(b1-2)Man(a1-3)[Fuc(a1-2)Gal(b1-3)[Fuc(a1-4)]GlcNAc(b1-2)Man(a1-3)]Man(b1-4)GlcNAc(b1-4)GlcNAc
Method in brief: as §1

[19] = target: Fuc(a1-2)Gal(b1-3)[Fuc(a1-4)]GlcNAc(b1-2)Man(a1-3)[Fuc(a1-2)Gal(b1-3)[Fuc(a1-4)]GlcNAc(b1-2)Man(a1-6)]Man(b1-4)GlcNAc(b1-4)[Fuc(a1-6)]GlcNAc(b1-4)[Fuc(a1-6)]GlcNAc
Method in brief: as §1

[20] = target: Fuc(a1-2)Gal(b1-3)[Fuc(a1-4)]GlcNAc(b1-3)[Fuc(a1-3)[Gal(b1-4)]GlcNAc(b1-6)]Gal(b1-4)Glc
Method in brief: as §1

[21] = target: Fuc(a1-2)Gal(b1-3)[Fuc(a1-4)]GlcNAc(b1-3)[Gal(b1-4)GlcNAc(b1-6)]Gal(b1-4)Glc
Method in brief: as §1

[22] = target: Fuc(a1-2)Gal(b1-4)Glc
Method in brief: as §1

[23] = target: Fuc(a1-2)Gal(b1-4)Glc6S
Method in brief: as §1

[24] = target: Fuc(a1-2)Gal(b1-4)GlcNAc
Method in brief: as §1

[25] = target: Fuc(a1-2)Gal(b1-4)GlcNAc(b1-2)Man
Method in brief: as §1

[26] = target: Fuc(a1-2)Gal(b1-4)GlcNAc(b1-2)Man(a1-3)[Fuc(a1-2)Gal(b1-4)GlcNAc(b1-2)Man(a1-6)]Man(b1-4)GlcNAc(b1-4)GlcNAc
Method in brief: as §1

[27] = target: Fuc(a1-2)Gal(b1-4)GlcNAc(b1-2)Man(a1-3)[Fuc(a1-2)Gal(b1-4)GlcNAc(b1-2)Man(a1-6)]Man(b1-4)GlcNAc(b1-4)[Fuc(a1-6)]GlcNAc
Method in brief: as §1

[28] = target: Fuc(a1-2)Gal(b1-4)GlcNAc(b1-2)[Fuc(a1-2)Gal(b1-4)GlcNAc(b1-4)]Man(a1-3)[Fuc(a1-2)Gal(b1-4)GlcNAc(b1-2)Man(a1-6)]Man(b1-4)GlcNAc(b1-4)GlcNAc
Method in brief: as §1

[29] = target: Fuc(a1-2)Gal(b1-4)GlcNAc(b1-3)Gal(b1-4)GlcNAc
Method in brief: as §1

[30] = target: Fuc(a1-2)Gal(b1-4)GlcNAc(b1-3)Gal(b1-4)GlcNAc(b1-2)Man(a1-3)[Fuc(a1-2)Gal(b1-4)GlcNAc(b1-3)Gal(b1-4)GlcNAc(b1-2)Man(a1-6)]Man(b1-4)GlcNAc(b1-4)GlcNAc
Method in brief: as §1

[31] = target: Fuc(a1-2)Gal(b1-4)GlcNAc(b1-3)Gal(b1-4)GlcNAc(b1-3)Gal(b1-4)GlcNAc
Method in brief: as §1

[32] = target: Fuc(a1-2)Gal(b1-4)GlcNAc(b1-3)GalNAc
Method in brief: as §1

[33] = target: Fuc(a1-2)Gal(b1-4)GlcNAc(b1-3)[Fuc(a1-2)Gal(b1-4)GlcNAc(b1-6)]GalNAc
Method in brief: as §1

[34] = target: Fuc(a1-2)Gal(b1-4)GlcNAc(b1-3)[Fuc(a1-3)[Gal(b1-4)]GlcNAc(b1-6)]Gal(b1-4)Glc
Method in brief: as §1

[35] = target: Fuc(a1-2)Gal(b1-4)GlcNAc(b1-6)GalNAc
Method in brief: as §1

[36] = target: Fuc(a1-2)Gal(b1-4)GlcNAc6S
Method in brief: as §1

[37] = target: Fuc(a1-2)Gal(b1-4)[Fuc(a1-3)]GlcNAc
Method in brief: as §1

B1: Tamarinin (protein)
chain: CDDSARAGNIVVYWGQGGSDNSEGSLKEACKSGHYNMIVLQQLIVYDDGRDPDLNLGAHCSDCTKLEEQIKYCQNKDIKILLQIGQVVPTQEDVKDVTKNLSEYLLKNFFSGKSGPLGEVYLNGIDIASVPEGNNLKFDELVEALNDSSTERRIYLSASPLCVYPDYYLNKAIQTEKLDFLFVQFFYQNPCIYTEGNPENLFEAMKTWTKNVPESMIFMALPATPNLDGYIPPRVLNKEILPAVSEASNFAGVMIFDRYFDRFRKYSSKIK
glycan array binding signal (z-score) [1]: -0.336 | glycan array binding signal (z-score) [2]: -0.357 | glycan array binding signal (z-score) [3]: -0.325 | glycan array binding signal (z-score) [4]: -0.286 | glycan array binding signal (z-score) [5]: -0.287 | glycan array binding signal (z-score) [6]: -0.241 | glycan array binding signal (z-score) [7]: -0.339 | glycan array binding signal (z-score) [8]: -0.359 | glycan array binding signal (z-score) [9]: 0.79 | glycan array binding signal (z-score) [10]: 1.46 | glycan array binding signal (z-score) [11]: -0.275 | glycan array binding signal (z-score) [12]: -0.033 | glycan array binding signal (z-score) [13]: 1.75 | glycan array binding signal (z-score) [14]: 0.02 | glycan array binding signal (z-score) [15]: -0.268 | glycan array binding signal (z-score) [16]: 0.63 | glycan array binding signal (z-score) [17]: -0.364 | glycan array binding signal (z-score) [18]: 1.03 | glycan array binding signal (z-score) [19]: 0.355 | glycan array binding signal (z-score) [20]: -0.718 | glycan array binding signal (z-score) [21]: -0.333 | glycan array binding signal (z-score) [22]: -0.377 | glycan array binding signal (z-score) [23]: -0.241 | glycan array binding signal (z-score) [24]: -0.393 | glycan array binding signal (z-score) [25]: 0.087 | glycan array binding signal (z-score) [26]: 1.15 | glycan array binding signal (z-score) [27]: 0.94 | glycan array binding signal (z-score) [28]: -0.059 | glycan array binding signal (z-score) [29]: -0.361 | glycan array binding signal (z-score) [30]: 0.643 | glycan array binding signal (z-score) [31]: -0.314 | glycan array binding signal (z-score) [32]: 0.146 | glycan array binding signal (z-score) [33]: 4.01 | glycan array binding signal (z-score) [34]: -0.458 | glycan array binding signal (z-score) [35]: 0.378 | glycan array binding signal (z-score) [36]: -0.247 | glycan array binding signal (z-score) [37]: -0.291
